Results reported in PubChem BioAssay (NCI).
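96-well plates; 48 h exposure; 5 concentrations. Endpoints by linear interpolation between flanking doses. Not reached: highest tested concentration assigned. GI50: concentration for 50% inhibition of growth. At the TGI there is no net growth.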 Bridge positions count the residues as written; N and C are the ends. Square brackets hold non-standard residues; d marks the D form. Peptide text beside a SMILES is read from it. * marks the point of attachment. Fmoc = O=C(OCC1c2ccccc2-c2ccccc21)*; Aib = CC(C)(N)C(=O)O; OtBu = CC(C)(C)O*; βAla = NCCC(=O)O

What follows are compounds tested on NCI-H322M lung (assay: growth of human tumour cells (NCI), 48 h).

Point of comparison: `COc1cc(/C=C2\CC3C4CC=C5C[C@@H](OC(C)=O)CC[C@]5(C)C4CC[C@]3(C)C2=O)ccc1OCCN1CCCCC1` (stereo partly drawn), TGI 20.4 µM. Against it:
- CC1(C)OC2C(CCP(=O)(O)O)OC(c3nc(C(N)=O)cs3)C2O1 (stereo not drawn) — higher, > 100 µM
- CC(=O)O[C@@H]1C2CCC3C(CC[C@@]4(C)C3CC[C@@H]4C(C)N(C)C)[C@@]2(C)CC[C@@H]1NC(=O)C=C(C)C (stereo partly drawn) — 2.9-fold lower, 6.93 µM
- Cc1c(-c2cnccn2)ssc1=S — higher, > 72 µM
- CC(=O)Nc1ccc2c(c1)/C(=C\c1ccc([N+](C)(C)C)cc1)c1ccccc1-2 — 3.9-fold higher, 78.7 µM
- C/C(=N\N=C(N)N)C(CN1CCCCC1)C(c1ccccc1)c1c(O)c2ccccc2oc1=O (stereo not drawn) — higher, > 100 µM
- COC1CCC(OS(C)(=O)=O)C(CO)O1 (stereo not drawn) — higher, > 100 µM
- O=C1[C@H]2ON(c3ccccc3)C(c3ccc([N+](=O)[O-])cc3)[C@H]2C(=O)N1c1ccc(Cc2ccc(N3C(=O)[C@@H]4ON(c5ccccc5)C(c5ccc([N+](=O)[O-])cc5)[C@@H]4C3=O)cc2)cc1 (stereo partly drawn) — higher, > 100 µM
- O=C1Nc2c(ccc(Cl)c2Cl)/C1=C/c1cc(Br)c(O)c(Br)c1 — higher, > 91.9 µM
- C[C@@H]1C[C@H]2[C@@H]3CCC4=CC(=O)C=C[C@]4(C)[C@@]3(F)[C@@H](O)C[C@]2(C)[C@@]1(O)C(=O)CO — higher, > 100 µM
- Nc1nc(/C=C\c2ccc([N+](=O)[O-])s2)nc(N2CCN(c3ccccc3)CC2)n1 — 2.4-fold higher, 49.8 µM
- C=CSCCC(N)C(=O)O (stereo not drawn) — higher, > 100 µM
- CC(C)N(C(=O)C12C3C4C5(C#N)C3C1(C#N)C5C42C#N)C(C)C (stereo not drawn) — higher, > 100 µM
- CCOC(=O)c1nc2cc(C(F)(F)F)ccc2nc1Oc1ccc(C#N)cc1 — higher, > 100 µM
- CC[C@]12C=CCN3CC[C@@]4(c5cc(N=O)c(OC)cc5N(C)[C@H]4[C@@](O)(C(=O)OC)[C@@H]1OC(C)=O)[C@@H]32 — higher, > 100 µM
- COC(=O)CCC(=O)c1ccc2c(c1)CCC2 — higher, > 100 µM
- Oc1c(Cl)cc(Cl)c(Cl)c1CNCCNCc1c(O)c(Cl)cc(Cl)c1Cl — 3.2-fold lower, 6.37 µM
- Oc1ccc(C=Nc2ccccc2O)cc1 — higher, > 100 µM
- CCC[C@H]1O[C@@H]2CC(=O)O[C@@H]2C2=C1C(=O)C=CC2=O — higher, > 100 µM
- Cc1c(C)n(CCCN2CCN(C)CC2)c2ccc(Oc3cccc(C(=O)N4CCN(CCc5ccc(F)cc5)CC4)c3)cc12 — 6.8-fold lower, 2.99 µM
- COc1ccc(C2(Cl)c3ccccc3N(c3ccccc3)c3ccccc32)cc1 — 11-fold lower, 1.94 µM
- Oc1c(Br)cc(/C=C/c2ccnc(/C=C/c3cc(Br)c(O)c(Br)c3)c2)cc1Br — 4.1-fold higher, 83.9 µM
- CC(C)(C)C1=CC(=C(P(=O)(O)O)P(=O)(O)O)C=C(C(C)(C)C)C1=O — higher, > 50 µM
- COc1ccc(C2SC(N)=Nc3c2c(C)nn3C(=O)c2ccccc2O)cc1OC (stereo not drawn) — not separable, > 10 µM
- CCc1cccc(C(C)C)c1NC(=O)C(=O)C1C(=O)Nc2ccccc2S1=O (stereo not drawn) — higher, > 100 µM
- C/C=C(\C)c1cc(=O)c2c(C)cc3c(c2o1)C(=O)c1c(O)c(C2CC(C)(N(C)C)C(OC(C)=O)C(C)O2)cc(C2CC(N(C)C)C(O)C(C)O2)c1C3=O (stereo not drawn) — within 1.5-fold, 29.3 µM
- CC(=O)NC1C(OC(C)C(=O)NC(C)C(=O)NC(CCC(=O)NCCCCCNc2ccc([N+](=O)[O-])c3[nH]c4ccccc4c(=O)c23)C(N)=O)C(O)C(CO)OC1(C)OCc1ccccc1 (stereo not drawn) — higher, > 100 µM
- CC(C)(C)[Si](OC1CCOC1=O)(c1ccccc1)c1ccccc1 (stereo not drawn) — higher, > 100 µM
- CC1Cc2c(Cl)ncnc2N(C)c2ccc(Cl)cc21 (stereo not drawn) — higher, > 100 µM
- CC1(C)NC(=O)C(NC(=O)C(N)CC(=O)O)CCCCNC(=O)CCNC1=O (stereo not drawn) (H-DK[Aib][βAla]; lactam 2-C; configuration not given here) — higher, > 100 µM
- Cc1ccc2c(c1)C(=C(C#N)C#N)CCCS2(=O)=O — higher, > 100 µM
- Cc1cc2c(C(=O)NC[C@H](C)c3ccccc3)c(O)c(O)cc2c(O)c1-c1c(C)cc2c(C(=O)NC[C@H](C)c3ccccc3)c(O)c(O)cc2c1O — within 1.5-fold, 16.4 µM
- Cc1[nH]c(=O)nc2nc3cc(Cl)cc(Cl)c3c(NC(C)(CO)CO)c12 — higher, > 100 µM
- CC(=O)OCCn1cnc2c(NCC=C(C)C)ncnc21 — higher, > 100 µM
- N#CC(c1ccccc1)N(CCCCCCN(C(=O)c1ccccc1)C(C#N)c1ccccc1)C(=O)c1ccccc1 (stereo not drawn) — higher, > 100 µM
- CCc1nc(N)nc(N)c1-c1ccc(Cl)c([N+](=O)[O-])c1 — higher, > 100 µM
- COc1ccc(Cc2c3cc(O)c(=O)cc-3ccn2C)cc1 — higher, > 100 µM
- CO/C=C/C=C(\C#N)C(=O)OC — higher, > 100 µM
- CSc1ncnc2c1ncn2CCC(=O)O — higher, > 100 µM
- c1ccc2c(CSCc3cccc4ccccc34)cccc2c1 — higher, > 100 µM
- COc1cc2cc(OC(C)=O)c3cc4c(cc3c2c(OC)c1OC)OCO4 — higher, > 100 µM
- COc1cc(C(=O)NC2CCc3cc(OC)c(OC)c(OC)c3-c3ccc(OC)c(=O)cc32)cc(OC)c1OC (stereo not drawn) — 1.8-fold lower, 11.4 µM
- Fc1ccc(-c2c(-c3ccncc3)nc3n2CCS3)cc1 — higher, > 25 µM
- CC(C)C(NC(=O)OCC1c2ccccc2-c2ccccc21)C(=O)NC(CCC(=O)OC(C)(C)C)C(=O)OC(C)(C)C (stereo not drawn) (Fmoc-Val-Glu(OtBu)-OtBu; configuration not given here) — higher, > 100 µM
- O=c1nc2n3c4c(cccc4nc-2c(=O)[nH]1)CCC3 — higher, > 100 µM
- O=C(NCCCCN1CCOCC1)c1cc2ccccc2o1 — higher, > 100 µM
- Cc1ccc([N+](=O)[O-])cc1S(=O)(=O)Nc1ccc(C2=NN(S(=O)(=O)c3cc([N+](=O)[O-])ccc3C)C(c3ccccc3)C2)cc1 (stereo not drawn) — higher, > 100 µM

Point of comparison: `Nc1nc(/C=C\c2ccc([N+](=O)[O-])s2)nc(N2CCN(c3ccccc3)CC2)n1`, GI50 19.8 µM. Against it:
- CC(=O)O[C@@H]1C2CCC3C(CC[C@@]4(C)C3CC[C@@H]4C(C)N(C)C)[C@@]2(C)CC[C@@H]1NC(=O)C=C(C)C (stereo partly drawn) — 7.8-fold lower, 2.53 µM
- O=C1Nc2c(ccc(Cl)c2Cl)/C1=C/c1cc(Br)c(O)c(Br)c1 — 1.5-fold lower, 12.8 µM
- Oc1c(Cl)cc(Cl)c(Cl)c1CNCCNCc1c(O)c(Cl)cc(Cl)c1Cl — 25-fold lower, 0.779 µM
- Cc1c(C)n(CCCN2CCN(C)CC2)c2ccc(Oc3cccc(C(=O)N4CCN(CCc5ccc(F)cc5)CC4)c3)cc12 — 12-fold lower, 1.61 µM
- COc1ccc(C2(Cl)c3ccccc3N(c3ccccc3)c3ccccc32)cc1 — 67-fold lower, 0.294 µM
- COc1cc(/C=C2\CC3C4CC=C5C[C@@H](OC(C)=O)CC[C@]5(C)C4CC[C@]3(C)C2=O)ccc1OCCN1CCCCC1 (stereo partly drawn) — 2.6-fold lower, 7.61 µM
- CC1Cc2c(Cl)ncnc2N(C)c2ccc(Cl)cc21 (stereo not drawn) — 67-fold lower, 0.295 µM
- Cc1cc2c(C(=O)NC[C@H](C)c3ccccc3)c(O)c(O)cc2c(O)c1-c1c(C)cc2c(C(=O)NC[C@H](C)c3ccccc3)c(O)c(O)cc2c1O — 31-fold lower, 0.64 µM
- Fc1ccc(-c2c(-c3ccncc3)nc3n2CCS3)cc1 — higher, > 25 µM
- O=C(NCCCCN1CCOCC1)c1cc2ccccc2o1 — higher, > 100 µM
